Assay results taken from PubChem BioAssay AID463173 (ICCB-Longwood Screening Facility, Harvard Medical School, 2010).
Screen size: about 52,000 compounds; about 1,700 (3.3%) were called active. Cut-off read from the data, not from the text of the source: active = survival mostly below about 52% (no sharp cut-off); inactive = mostly above about 56%. The list shows a part of the results.

system: Wild type; experiment: growth inhibition of S. aureus wild type versus tarO mutant, primary screen, teichoic acid synthesis inhibitors, RN4220, OD600 (AID 463173); settings: S. aureus RN4220 wild type/DeltatarO growth, OD600, 18 h, stronger effect = lower value, screened at 18.75 µg/mL (by protocol)

Row | SMILES | survival
1 | O=C(CSc1nc2ccccc2nc1Cc1ccccc1)NCc1ccccc1Cl | inactive: 132%
2 | COc1ccc(-c2cc(C(=O)O)n(Cc3ccccc3)n2)cc1 | inactive: 63%
3 | CCC(=O)N1CCc2cc(Br)cc(S(=O)(=O)N3CCC(C(=O)Nc4ccc(OC)cc4)CC3)c21 | active: 0%
4 | CCc1ccc(NC(=O)c2ccc3c(O)c(S(=O)(=O)c4ccc(Cl)cc4)c(=O)[nH]c3c2)cc1 | inactive: 85%
5 | CCCCN(CC)CCCNC(=O)c1sc2nc(C)cc(C)c2c1-n1cccc1 | inactive: 122%
6 | Cc1ccc(C)c(NC(=O)CN2C(=O)CCc3ccccc32)c1 | inactive: 88%
7 | Cc1ccc(S(=O)(=O)N(CC(O)Cn2c3ccccc3c3ccccc32)c2cccc(C(N)=O)c2)cc1 (stereo not drawn) | inactive: 45%
8 | CCN(CC)c1cc(C)c2cc(NC(=O)c3cccc(OC)c3)ccc2n1 | inactive: 62%
9 | Cc1nc2scc(-c3cccs3)c2c(=O)o1 | inactive: 106%
10 | Cc1cccc2nc(-c3ccco3)c(Nc3ccc4c(c3)OCO4)n12 | inactive: 95%
11 | CCOC(=O)C1CCCN(S(=O)(=O)c2ccc(F)c(C(=O)Nc3ccc(F)c(F)c3)c2)C1 (stereo not drawn) | inactive: 73%
12 | Cc1ccc(NC(=O)CN(C)S(=O)(=O)c2ccc3c(c2)n(C)c(=O)c(=O)n3C)cc1C | inactive: 76%
13 | Cc1ccc(-c2nc3c4ccccc4n(CC(=O)N4CCN(c5ccccc5F)CC4)c(=O)n3n2)cc1 | inactive: 71%
14 | Cc1ccccc1CNC(=O)c1cnc2sc(N3CCOCC3)nn2c1=O | inactive: 86%
15 | O=C(CS(=O)CC(=O)Nc1ccc2c(c1)OCCO2)Nc1ccc(Cl)cc1 (stereo not drawn) | inactive: 105%
16 | Cc1nc(SC(C)C(=O)Nc2ccccc2C)cc(-c2ccccc2)n1 (stereo not drawn) | inactive: 79%
17 | COc1ccc(CNC(=O)c2cc(-c3ccc(OC)cc3)on2)cc1 | inactive: 159%
18 | Cc1ccc(-n2nnnc2CNC(=O)C(C)(C)C)cc1C | inactive: 64%
19 | Cc1ccccc1C(=O)c1cccn1CC(=O)NCc1ccccc1 | inactive: 120%
20 | CCN(CC)Cc1nc2ccccc2[nH]1 | inactive: 110%

Row | SMILES | survival
21 | CCOc1ccc(CCNC(=O)Cn2nc(C)n3c(cc4occc43)c2=O)cc1OCC | inactive: 87%
22 | COc1ccc(OCC(=O)OC2CCN(C)CC2)cc1 | inactive: 118%
23 | Cc1ccc(C)c(OCCn2c(-c3ccc(Cl)cc3)nc3ccccc3c2=O)c1C | inactive: 85%
24 | CCn1c2ccccc2c2nnc(SCC(=O)O)nc21 | inactive: 68%
25 | COc1ccc(CNC(=O)CSc2nc(-c3ccc(OC)cc3)cc(C(F)(F)F)n2)cc1 | inactive: 93%
26 | O=C(CCn1c(=O)oc2ccccc21)n1c(=O)oc2ccccc21 | inactive: 109%
27 | CC(C)Oc1ccc(CNC(=O)c2cc3ccccn3n2)cc1 | inactive: 97%
28 | CC(=O)Nc1ccc(S(=O)(=O)N2CCC(n3c(C(F)(F)F)nc4cccnc43)CC2)cc1 | inactive: 75%
29 | COc1cccc(-c2cc(C(=O)Nc3cc(Cl)ccc3O)on2)c1 | inactive: 102%
30 | Cc1ccc(CCNC(=O)CCCn2nc(C)c3c(C)n(-c4ccccc4)nc3c2=O)cc1 | inactive: 79%
31 | COc1cccc(N2CCN(C(=O)CCc3c(C)nc4c(c3C)c(=O)n(C)c(=O)n4C)CC2)c1 | inactive: 91%
32 | Cc1ccccc1-n1c(SCc2ccc(Cl)cc2)nc2[nH]ncc2c1=O | inactive: 73%
33 | CCC(C)NC(=O)c1ccc2c(c1)N(Cc1ccccc1)C(=O)c1ccccc1S2 (stereo not drawn) | inactive: 79%
34 | CCOc1ccc(CNC(=O)C2CCCN(S(=O)(=O)c3ccc4c(ccn4C)c3)C2)cc1 (stereo not drawn) | inactive: 81%
35 | CCN(CC)c1cc2c(cc1F)c(=O)c(S(=O)(=O)c1ccc(OC)cc1)cn2CC | inactive: 124%
36 | CCOCCCNc1ccc(-c2ccccc2)nn1 | inactive: 102%
37 | CC(C)(C)c1ccc(-c2nc(SCCCOc3ccccc3)n3[nH]c(=O)cc3n2)cc1 | inactive: 82%
38 | COc1ccc(-c2c3c(=O)n(C)c(=O)n(C)c3c3c(C)nc4ccccc4n23)cc1 | inactive: 74%
39 | COc1ccc(-c2nc(CN3CCC(C(=O)NCc4ccccc4)CC3)c(C)o2)cc1OC | inactive: 92%
40 | Cn1nnc2c(N3CCN(c4ccccc4Cl)CC3)ncnc21 | inactive: 69%

Row | SMILES | survival
41 | CCOC(=O)c1ccccc1NC(=O)N(C(C)C)C1CCN(C(C)=O)CC1 | inactive: 83%
42 | CCOC(=O)Cn1c(=O)n(-c2ccccc2OC)c2nc(-c3cccc(F)c3)nc(C(N)=O)c21 | inactive: 57%
43 | Cc1ccc(-c2nnc(SCc3cccc(C#N)c3)o2)cc1 | inactive: 64%
44 | CCOC(=O)c1cccnc1SCC(=O)Nc1ccc(C)cc1C | inactive: 71%
45 | COc1ccc(-c2nc(C)c(CCNS(=O)(=O)c3cc(C)c(C)cc3C)s2)cc1 | inactive: 64%
46 | O=C(NCCc1ccccc1)c1nnc(Cc2cccc(F)c2)o1 | inactive: 114%
47 | CN(C)CCNC(=O)c1ccc2c(=O)n3c(nc2c1)CCCCC3 | inactive: 124%
48 | CCCCc1ccc(NC(=O)c2ccc(=O)n(Cc3cccc(C)c3)c2)cc1 | inactive: 77%
49 | Cc1ccc2c(c1)-c1c(cnc3cc(-c4ccccc4)nn13)CO2 | inactive: 68%
50 | CCSc1ncc(Cl)c(C(=O)Nc2ccc(S(=O)(=O)N3CCCCC3)cc2)n1 | inactive: 93%
51 | O=C(CCS(=O)(=O)c1cccs1)Nc1ccc(C(=O)Nc2ccccc2F)cc1 | inactive: 135%
52 | Cc1ccc(C)c(Cn2cc(S(=O)(=O)c3ccc(Cl)cc3)c(=O)c3cc(F)ccc32)c1 | inactive: 75%
53 | CCc1ccc(NC(=O)c2ccc3[nH]c(C)c(C)c3c2)cc1 | inactive: 152%
54 | CCN(Cc1ccccc1)C(=O)CN(c1ccc(OC)cc1)S(=O)(=O)c1c(C)nn(C)c1C | inactive: 71%
55 | COc1ccc(Cl)cc1NS(=O)(=O)c1ccc2c(c1)NC(=O)CC(=O)N2 | inactive: 80%
56 | CCCCN(CCCC)CCNC(=O)c1cn(CC)c2ccc(S(=O)(=O)N(C)C3CCCCC3)cc2c1=O | inactive: 155%
57 | CCOc1ccc(NC(=O)Cn2c(=O)n(-c3cccc(OC)c3)c(=O)c3c4c(sc32)CCCC4)cc1 | inactive: 98%
58 | CC(=O)N1CCc2c(sc3c2c(=O)n(CCc2ccccc2)c(=O)n3Cc2ccc(Cl)cc2)C1 | inactive: 65%
